Measured values taken from paper PMC7096399, “The Na,K-ATPase acts upstream of phosphoinositide PI(4,5)P2 facilitating unconventional secretion of Fibroblast Growth Factor 2” (Communications Biology, 2020).

Columns and labels:
[1] = target: T1, GST-α1-subCD3, small sub-domain of loop 3 of the cytoplasmic domain of α1 (human); assay: AlphaScreen or HTRF; competition: His-FGF2-wt (62 nM) and GST-α1 variant (15 nM) with ∆N25-FGF2 competitor from 22.5 µM to 1.4 nM; apparent IC50 taken as the apparent KD; conditions: both partners purified
T1 construct: α1 subunit of the Na,K-ATPase, human, sub-domain of loop 3 of the cytoplasmic domain, […]; also called GST-tagged α1-subCD3; source: E. coli, purified according to standard procedures; not shown: GST, N-terminal, kept

[2] = target: T2, GST-α1-CD3, third loop of the cytoplasmic domain of α1 alone (human); assay: as above; conditions: both partners purified
T2 construct: α1 subunit of the Na,K-ATPase, human, third loop of the cytoplasmic domain, […]; also called loop 3 alone; source: E. coli, purified according to standard procedures; not shown: GST, N-terminal, kept

Kd [1]: 800 nM
Kd [2]: 1300 nM
B1: ∆N25-FGF2, non-tagged form of FGF2 lacking 25 residues at the N-terminus (domain or fragment)
chain: not shown
notes: FGF2, 18 kDa isoform ([…]), lacking 25 residues at the N-terminus; Untagged; also called untagged version of FGF2; source: E. coli, purified according to standard procedures
